# From PubChem BioAssay AID485290 (National Center for Advancing Translational Sciences (NCATS), 2010)
# In all, about 350,000 compounds went through this assay and about 990 (0.28%) were called active. The inconclusive results got no clear call from the source; some entries with a clear call stand among them for comparison. Calls come from the whole dose curve; as a rule, active = well fitted inhibition curve with a large enough effect; inconclusive = small, poorly fitted or top-dose-only effect; inactive = no such curve, though single readings can be large or run the other way. Potencies of inconclusive entries are doubtful fits and often do not repeat.
# Molecular target: Tyrosyl-DNA phosphodiesterase 1 (Homo sapiens) (UniProt Q9NUW8)
# Sequence of UniProt Q9NUW8 (Q9NUW8 whole entry, looked up): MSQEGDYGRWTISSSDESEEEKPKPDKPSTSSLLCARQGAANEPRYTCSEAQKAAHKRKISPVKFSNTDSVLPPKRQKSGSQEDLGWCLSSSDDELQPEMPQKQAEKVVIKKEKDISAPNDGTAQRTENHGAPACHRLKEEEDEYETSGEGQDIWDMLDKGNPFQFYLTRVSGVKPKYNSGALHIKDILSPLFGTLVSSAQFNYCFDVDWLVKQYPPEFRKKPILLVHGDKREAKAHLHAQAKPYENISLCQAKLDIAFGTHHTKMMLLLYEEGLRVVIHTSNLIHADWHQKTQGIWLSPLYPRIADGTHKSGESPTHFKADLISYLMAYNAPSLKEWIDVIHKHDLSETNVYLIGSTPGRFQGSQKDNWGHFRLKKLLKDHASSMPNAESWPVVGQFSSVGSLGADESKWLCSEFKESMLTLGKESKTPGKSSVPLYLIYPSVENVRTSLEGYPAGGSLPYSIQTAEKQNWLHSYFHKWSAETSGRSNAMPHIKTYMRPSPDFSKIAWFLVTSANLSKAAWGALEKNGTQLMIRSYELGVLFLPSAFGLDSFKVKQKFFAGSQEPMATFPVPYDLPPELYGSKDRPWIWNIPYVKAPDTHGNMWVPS
# Assay: qHTS Assay for Inhibitors of Tyrosyl-DNA Phosphodiesterase (TDP1); note: nearly all actives have a fitted effect of over 40% in size
# Conditions: recombinant TDP1, AlphaScreen DNA substrate cleavage; series mostly up to 130 µM
# Outline: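 Recombinant E. coli-expressed Tdp1 (1 nM) preincubated with compound 15 min at RT, then 5'-biotin/3'-phosphotyrosine-FITC DNA substrate (15 nM) added for 5 min. AlphaScreen beads (10 ug/ml) added, 10 min RT; tyrosine-FITC cleavage read as signal loss.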
# Potency is the fitted concentration of half-maximal effect; tags give direction and shape of the fitted curve.
row,Structure (SMILES),Potency
1,O=C(CSc1nnc(CNC(=O)c2c(F)cccc2F)o1)NCc1ccco1,active: 50.1 µM
2,CCOC(=O)/C(C#N)=C/c1ccc(N2CCCCC2)cc1,"inconclusive: 14.1 µM [inhibitor, full curve]"
3,Cc1cccc(CN2CCN(CC(=O)O)C2=O)c1,"inconclusive: 44.7 µM [inhibitor, partial curve]"
4,CCCCNC(=O)COC(=O)c1c2c(nc3ccccc13)/C(=C/c1cccs1)CC2,inactive
5,O=C(O)c1cc(Oc2ccc([N+](=O)[O-])cc2)cc(Oc2ccc([N+](=O)[O-])cc2)c1,inactive
6,Cc1ccc(NC(=O)c2ccc3nc[nH]c3c2)nc1,active: 35.5 µM
7,O=C1OCC/C1=C\c1ccccc1,inactive
8,O=C(COC(=O)/C=C/c1ccco1)Nc1ncc(C(F)(F)F)cc1Cl,active: 12.6 µM
9,Cc1ccc(Nc2nc(N3CCOCC3)nc(N3CCOCC3)n2)cc1Cl,active: 22.4 µM
10,O=C(O)c1ccc(-n2cccc2/C=C2/SC(=O)N(CC(=O)N3CCCC3)C2=O)cc1,active: 50.1 µM
11,C=CCc1cccc(/C=N/NC(=O)COc2ccc(-n3cnnn3)cc2)c1O,"inconclusive: 56.2 µM [inhibitor, partial curve]"
12,O=C(COC(=O)c1c(Cl)cccc1Cl)Nc1ccccc1Br,"inconclusive: 39.8 µM [inhibitor, single point]"
13,CCN(CC)c1nc(C#N)nc(N(CC)CC)n1,"inconclusive: 56.2 µM [inhibitor, partial curve]"
14,O=C(CCc1ccccc1)OCCOC(=O)CCc1ccccc1,"inconclusive: 79.4 µM [inhibitor, single point]"
15,CC(C)(C)C(=O)N1CCC(O)(CS(=O)(=O)Cc2ccccc2Cl)CC1,inactive
16,Clc1ccc(-n2ncc3c(NCCCn4ccnc4)ncnc32)cc1,inactive
17,COc1ccc(S(=O)(=O)N2CCCCCC2)cc1C(=O)NCc1ccc(C)cc1,inactive
18,COc1ccc(-n2c(SCC(=O)N/N=C/c3ccccc3OCC(=O)O)nc3ccccc3c2=O)cc1,"inconclusive: 44.7 µM [inhibitor, single point]"
19,CCOC(=O)c1cnc(SCC(=O)Nc2sc(C)c(C)c2C#N)nc1N,inactive
20,CCOc1ccccc1-c1noc(CCC(=O)Nc2cccnc2)n1,"inconclusive: 31.6 µM [inhibitor, single point]"
21,CS(=O)(=O)N(Cc1ccc(Cl)cc1)c1ccc(C(=O)NCc2ccccn2)cc1,inactive
22,Cc1noc(C)c1-c1ccc2ncnc(NCc3cccn3C)c2c1,inactive
23,Cc1ccc(OCC(=O)Nc2ccc3c(c2)C(=O)NC3=O)cc1,"inconclusive: 50.1 µM [inhibitor, partial curve]"
24,Cc1ccc(C)n1-c1cccc(C(=O)O)c1,"inconclusive: 2 µM [inhibitor, full curve, poor fit]"

row,Structure (SMILES),Potency
1,C/C=C\C1=C(CO)C(=O)[C@@H]2OC2C1=O (stereo partly specified),"inconclusive: 0.708 µM [inhibitor, full curve]"
2,O=[S+]([O-])([O-])c1ccc2c(c1)cc([S+](=O)([O-])[O-])c1nn(-c3ccc(/C=C/c4ccc(-n5nc6c([S+](=O)([O-])[O-])cc7cc([S+](=O)([O-])[O-])ccc7c6n5)cc4[S+](=O)([O-])[O-])c([S+](=O)([O-])[O-])c3)nc12,"inconclusive: 15.8 µM [inhibitor, partial curve]"
3,COc1ccc(NC(=O)Nc2nc3c(s2)CCCC3)cc1,inactive
4,NC(=S)n1[nH]c(-c2ccc([N+](=O)[O-])cc2)c(N=Nc2cccc([N+](=O)[O-])c2)c1=O,"inconclusive: 70.8 µM [inhibitor, single point]"
5,Cc1cc(N2CCCCCC2)nc(-c2ccccc2O)n1,"inconclusive: 31.6 µM [inhibitor, single point]"
6,C=C(C)CN(CC)C(=O)CN1C(=O)NC2(CCCc3ccccc32)C1=O (stereo unspecified),"inconclusive: 3.55 µM [inhibitor, single point]"
7,Cc1cccc(N2NC(=O)/C(=C/c3ccc(-c4ccc(Cl)c(C(=O)O)c4)o3)C2=O)c1,active: 11.2 µM
8,O=C(/C=C/c1ccco1)Nc1ccc(-c2nc3ccccc3[nH]2)cc1,"inconclusive: 79.4 µM [inhibitor, single point]"
9,CCN(CC)C(=O)CSc1nc(O)c(Cc2ccc(OC)cc2)c(=O)[nH]1,"inconclusive: 31.6 µM [inhibitor, single point]"
10,CC(N=Cc1cccc(O)c1O)c1ccccc1 (stereo unspecified),"inconclusive: 70.8 µM [inhibitor, partial curve, poor fit]"
11,O=C(C[n+]1cc(-c2ccc(F)cc2)n2c1CCC2)c1cccs1,inactive
12,Cc1cc(NCc2ccncc2)ccc1Br,"inconclusive: 15.8 µM [inhibitor, partial curve]"
13,O=C(O)c1cccc(-c2ccc(/C=N/NC(=O)C3COc4ccccc4O3)o2)c1 (stereo unspecified),"inconclusive: 50.1 µM [inhibitor, partial curve]"
14,O=C(O)C1Cc2ccccc2CN1C(=O)CCl (stereo unspecified),"inconclusive: 15.8 µM [inhibitor, full curve]"
15,O=C(O)c1cc2c(ccc3ccccc32)o1,"inconclusive: 39.8 µM [inhibitor, single point]"
16,CCOc1ccc(S(=O)(=O)N(CC)CC(=O)NCc2ccccn2)cc1C,"inconclusive: 4.47 µM [inhibitor, single point]"
17,Cc1ccc(NC(=O)CSc2ccccc2NC(=O)c2ccccc2Cl)cc1Cl,"inconclusive: 44.7 µM [inhibitor, single point]"
18,Cc1nc(N)sc1-c1csc(Nc2ncccn2)n1,active: 89.1 µM
19,Cc1ccc(C(=O)Oc2ccc(C(=O)COC(=O)C3CC(=O)N(Cc4ccco4)C3)cc2)cc1 (stereo unspecified),"inconclusive: 50.1 µM [inhibitor, partial curve]"
20,O=C(Nc1cccc(-c2nc3cccnc3s2)c1)C1c2ccccc2Oc2ccccc21,"inconclusive: 3.16 µM [inhibitor, full curve]"
21,O=C(O)c1ccc(/C=C/c2nc3sc4c(c3c(=O)[nH]2)CCC4)cc1,active: 50.1 µM
22,Cc1ccc(S(=O)(=O)Nc2ccc(O)c3cccnc23)cc1,"inconclusive: 89.1 µM [inhibitor, single point]"
23,COc1cc(S(=O)(=O)N2CCCCC2)ccc1NC(=O)c1ccc(F)cc1,inactive
24,CCCCn1c(N)c(N(CC)C(=O)c2cc3c(s2)CCCCC3)c(=O)[nH]c1=O,"inconclusive: 39.8 µM [inhibitor, single point]"

row,Structure (SMILES),Potency
1,CC1(C)OC2C(CO)OC(n3cnc4c(=S)nc[nH]c43)C2O1 (stereo unspecified),"inconclusive: 7.94 µM [inhibitor, partial curve, poor fit]"
2,O=C(COC(=O)c1ccc(S(=O)(=O)NCc2ccco2)cc1)NC1CCCCCC1,"inconclusive: 8.91 µM [inhibitor, partial curve]"
3,Cc1cc(C(=O)O)ccc1-c1ccc(/C=C2\SC(=O)N(CC(=O)Nc3ccc4c(c3)OCO4)C2=O)o1,active: 8.91 µM
4,O=C(O)c1ccc(CN2C(=O)CSC2=S)cc1,"inconclusive: 44.7 µM [inhibitor, partial curve]"
5,O=c1oc2cc(Cl)ccc2n1CSc1nc2ccccc2s1,"inconclusive: 56.2 µM [inhibitor, partial curve]"
6,CC(=O)c1ccc(S(=O)(=O)N2CCN(C(=O)/C=C/c3ccc4ccccc4n3)CC2)cc1,"inconclusive: 50.1 µM [inhibitor, partial curve]"
7,NC(=O)C1(N2CCCCC2)CCN(C(=O)CSc2nc3ccccc3[nH]2)CC1,"inconclusive: 15.8 µM [inhibitor, full curve]"
8,COc1cccc(C2=CC(=O)C[C@H](c3ccc4c(c3)OCO4)C2)c1OC,inactive
9,Fc1ccccc1OCCn1c(=S)[nH]c2ccccc21,"inconclusive: 56.2 µM [inhibitor, partial curve]"
10,Clc1ccccc1Cn1nnc(-c2cccs2)n1,"inconclusive: 44.7 µM [inhibitor, single point]"
11,COc1ccc(C)cc1N(CC(=O)N1CCCC1)S(=O)(=O)c1ccccc1,"inconclusive: 89.1 µM [inhibitor, single point]"
12,CCOc1ccccc1-c1nnc(SCc2ccc(Cl)cc2)o1,"inconclusive: 79.4 µM [inhibitor, single point]"
13,CCOC(=O)Cc1csc(NC(=O)COc2cccc(C)c2)n1,"inconclusive: 89.1 µM [inhibitor, single point]"
14,Cc1ccccc1NS(=O)(=O)c1ccc2[nH]cc(C(=O)N3CCCCC3)c(=O)c2c1,active: 22.4 µM
15,c1ccc(Nc2nc(NCc3ccco3)nc3nccnc23)cc1,active: 50.1 µM
16,O=C1/C(=C/c2ccco2)Oc2c1ccc(O)c2CN1CCCCC1,"inconclusive: 17.8 µM [inhibitor, full curve]"
17,CCOC(=O)C(/C=C(\C#N)C(=O)OCC)=C(/N)N1CCN(c2ccc(Cl)cc2)CC1,inactive
18,COCCn1nnnc1C(c1cc2cc(OC)c(OC)cc2[nH]c1=O)N1CCN(c2ccc(O)cc2)CC1 (stereo unspecified),"inconclusive: 44.7 µM [inhibitor, single point]"
19,COc1cccc(NC(=O)C2CCN(c3nn4cc(-c5ccc(F)cc5)nc4s3)CC2)c1,inactive
20,c1ccc2c(c1)nnn2CNc1nccs1,inactive
21,O=C(/C=C/c1ccccc1)NC(=O)c1ccccc1O,"inconclusive: 44.7 µM [inhibitor, partial curve]"
22,O=C(O)C1Cc2ccccc2CN1C(=O)COc1ccc(Br)cc1 (stereo unspecified),active: 22.4 µM
23,Cc1cccc(-n2c(CNC(=O)c3ccc(S(=O)(=O)N4CCCC4)cc3)n[nH]c2=S)c1,"inconclusive: 0.1 µM [inhibitor, full curve, poor fit]"
